This note sets out measurements from the antibiotic and cytotoxicity screens of Wong et al. (2023).

The subject of test [1] is HSkMC (human skeletal muscle cells). As to the kind of experiment: cytotoxicity call (relative viability < 0.9). As to conditions: 10 µM.
For test [2], the system named is HepG2. The test is described as follows: cytotoxicity call (relative viability < 0.9). As to conditions: 10 µM.
The subject of test [3] is S. aureus RN4220. The test is described as follows: growth inhibition call (relative growth <= 0.2). As to conditions: 50 µM.

SMILES strings stand for the structures. Some of the results follow.

`Nc1nc(=O)n(C2CSC(CO)O2)cc1F` (stereo unspecified): the cytotoxicity call in test [1] and in test [2] was “inactive” in each case. Besides, in test [3], the growth inhibition call is “inactive”.

For `C[C@@H]1CN([C@H](C)CO)C(=O)c2cc(NC(=O)Nc3ccc(C(F)(F)F)cc3)ccc2O[C@@H]1CN(C)Cc1ccc(Oc2ccccc2)cc1`, the cytotoxicity call in test [1] and in test [2] was “active” each time. In test [3], the growth inhibition call is “inactive”.

`Cn1cnc(CCNC(=O)C[C@H]2CC[C@H]3[C@@H](COC[C@@H](O)CN3C(=O)C3CC3)O2)c1`: the cytotoxicity call in test [1] and in test [2] was “inactive” throughout. Further, the growth inhibition call in test [3] is “inactive”.

Turning to `CC(=O)OCC=C(C)C=CC=C(C)C=CC1=C(C)CCCC1(C)C`, the cytotoxicity call in test [1] and in test [2] was “inactive” in each case. Moreover, the growth inhibition call in test [3] is “inactive”.

Consider `O=C(C[C@H]1C=C[C@H](NC(=O)Cc2ccccn2)[C@@H](CO)O1)NCCc1ccncc1`, for which the cytotoxicity call in test [1] and in test [2] was “inactive” in each case. The growth inhibition call in test [3] is “inactive”.

In the case of `COC(=O)N/N=C/c1c[n+]([O-])c2ccccc2[n+]1[O-]`, the cytotoxicity call in test [1] and in test [2] was “inactive” each time. Besides, in test [3], the growth inhibition call was “inactive”.

In the case of `COc1ccc(S(=O)(=O)N(C)C[C@@H]2Oc3c(cccc3N(C)C)C(=O)N([C@H](C)CO)C[C@@H]2C)cc1`, the cytotoxicity call in test [1] and in test [2] was “inactive” in each case. For the same compound, in test [3], the growth inhibition call is “inactive”.

With `CO[C@H](CN(C)C(=O)c1ccc2c(c1)OCO2)[C@H](C)CN([C@@H](C)CO)S(=O)(=O)c1ccc(C)cc1`, the cytotoxicity call in test [1] and in test [2] was “inactive” each time. For the same compound, the growth inhibition call in test [3] is “inactive”.

As for `Cc1ncc([N+](=O)[O-])n1CCO`, the cytotoxicity call in test [1] and in test [2] was “inactive” in each case. In addition, in test [3], the growth inhibition call was “inactive”.

Consider `Cc1noc(C)c1NC(=O)N(C)C[C@@H]1OCCCC[C@@H](C)Oc2ccc(NC(=O)C3CCCCC3)cc2C(=O)N([C@H](C)CO)C[C@@H]1C`, for which the cytotoxicity call in test [1] and in test [2] was “inactive” in each case. In test [3], the growth inhibition call is “inactive”.

On to `Cc1noc(C)c1S(=O)(=O)N(C)C[C@H]1Oc2ccc(NS(=O)(=O)c3ccc(F)cc3)cc2C(=O)N([C@@H](C)CO)C[C@H]1C`, for which the cytotoxicity call in test [1] and in test [2] was “inactive” in each case. Besides, in test [3], the growth inhibition call is “inactive”.

Consider `Cc1ccc(S(=O)(=O)Nc2cccc3c2O[C@@H](CN(C)CC2CC2)[C@@H](C)CN([C@H](C)CO)C3=O)cc1`, for which the cytotoxicity call in test [1] and in test [2] was “inactive” throughout. Further, in test [3], the growth inhibition call is “inactive”.

Turning to `C[C@@H]1CN([C@H](C)CO)C(=O)c2cc(NC(=O)Nc3ccccc3)ccc2O[C@@H]1CN(C)Cc1ccc(Oc2ccccc2)cc1`, the cytotoxicity call in test [1] and in test [2] was “active” in each case. In test [3], the growth inhibition call was “inactive”.

In the case of `CCc1oc2ccccc2c1C(=O)c1cc(Br)c(O)c(Br)c1`, the cytotoxicity call in test [1] was “inactive”. The cytotoxicity call in test [2] is “active”. For the same compound, the growth inhibition call in test [3] is “active”.

Regarding `Cc1noc(C)c1NC(=O)Nc1ccc2c(c1)C(=O)N([C@H](C)CO)C[C@@H](C)[C@@H](CN(C)S(=O)(=O)c1ccc(F)cc1)OCCCC[C@H](C)O2`, the cytotoxicity call in test [1] and in test [2] was “inactive” each time. Besides, the growth inhibition call in test [3] was “inactive”.

With `COc1ccc(CN(C)C[C@H]2Oc3ccc(NC(=O)Cn4cnnn4)cc3CC(=O)N([C@H](C)CO)C[C@@H]2C)cc1`, the cytotoxicity call in test [1] and in test [2] was “inactive” throughout. Also, in test [3], the growth inhibition call was “inactive”.

With `COc1ccc(NC(=O)Nc2ccc3c(c2)C(=O)N([C@H](C)CO)C[C@H](C)[C@@H](CN(C)C(=O)Nc2ccc(F)cc2)OCCCC[C@H](C)O3)cc1`, the cytotoxicity call in test [1] and in test [2] was “inactive” throughout. For the same compound, the growth inhibition call in test [3] was “inactive”.

Regarding `CN(C)CCCNC(=O)C[C@H]1CC[C@@H]2[C@@H](COc3ccc(NC(=O)c4ccccc4F)cc3C(=O)N2C)O1`, the cytotoxicity call in test [1] and in test [2] was “inactive” throughout. Also, the growth inhibition call in test [3] is “inactive”.

Take `CC(=Cc1ccccc1)C=C1SC(=S)N(CC(=O)O)C1=O`: the cytotoxicity call in test [1] and in test [2] was “inactive” each time. The growth inhibition call in test [3] was “inactive”.

Turning to `COc1cccc(C#Cc2ccc3c(c2)O[C@H](CN(C)S(=O)(=O)c2ccccc2F)[C@H](C)CN([C@H](C)CO)S3(=O)=O)c1`, the cytotoxicity call in test [1] and in test [2] was “inactive” each time. Moreover, the growth inhibition call in test [3] was “inactive”.

Take `C[C@H]1CN([C@@H](C)CO)C(=O)c2cc(NC(=O)C3CC3)ccc2O[C@@H]1CN(C)S(=O)(=O)c1ccccc1`: the cytotoxicity call in test [1] and in test [2] was “inactive” each time. Further, the growth inhibition call in test [3] is “inactive”.

For the compound `Cc1noc(C)c1NC(=O)Nc1cccc2c1O[C@H](CN(C)C(=O)NC(C)C)[C@H](C)CN([C@H](C)CO)C2=O`, the cytotoxicity call in test [1] and in test [2] was “inactive” in each case. Besides, in test [3], the growth inhibition call is “inactive”.

As for `C[C@@H]1CCCCO[C@H](CN(C)C(=O)CCC(F)(F)F)[C@H](C)CN([C@@H](C)CO)C(=O)c2cc(NC(=O)Nc3ccccc3)ccc2O1`, the cytotoxicity call in test [1] and in test [2] was “inactive” throughout. Also, in test [3], the growth inhibition call was “inactive”.

For `COc1ccc(S(=O)(=O)N(C)C[C@H]2Oc3ccc(NC(=O)Cc4ccccc4)cc3C(=O)N([C@H](C)CO)C[C@H]2C)cc1`, the cytotoxicity call in test [1] and in test [2] was “inactive” throughout. Further, the growth inhibition call in test [3] is “inactive”.

On to `COc1ccc(CN(C)C[C@H]2OCCCC[C@H](C)Oc3ccc(NC(=O)Cc4ccccc4)cc3C(=O)N([C@@H](C)CO)C[C@H]2C)cc1`, for which the cytotoxicity call in test [1] and in test [2] was “inactive” in each case. The growth inhibition call in test [3] was “inactive”.

For the compound `Cc1noc(C)c1S(=O)(=O)N(C)C[C@H]1Oc2c(NS(=O)(=O)c3cn(C)cn3)cccc2C(=O)N([C@H](C)CO)C[C@@H]1C`, the cytotoxicity call in test [1] and in test [2] was “inactive” each time. The growth inhibition call in test [3] was “inactive”.

Regarding `CCNC(=O)[C@H]1[C@H](CO)[C@H]2Cn3c(ccc(-c4ccc(OC)cc4)c3=O)[C@@H]1N2S(C)(=O)=O`, the cytotoxicity call in test [1] and in test [2] was “inactive” throughout. Further, the growth inhibition call in test [3] was “inactive”.
